The values below come from the RNAGym collection of RNA variant scans (doi:10.1093/nar/gkz1192).

The labels stand for the following.
B1: CPEB3 Ribozyme (parent)
chain: UAACAGGGGGCCACAGCAGAAGCGUUCACGUCGCAGCCCCUGUCAGAUUCUGGUGAAUCUGCGAAUUCUGCUGUAUAUCUC

The source gives no read counts; variants with many changes may rest on few reads.

This series covers variants of B1. The series can be described thus: self-cleavage, relative activity (ratio to wild type); higher = more cleavage; in vitro, sequencing. The essentials:
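Barcoded CPEB3 ribozyme mutants, produced by rounds of error-prone PCR, self-cleaved while being transcribed with T7 RNA polymerase for 5 hours at 37°C and during a subsequent 15 min DNase I step before EDTA was added. Sequencing of template-switched cDNA on Illumina gave cleaved and total reads, and DNA sequencing assigned barcodes to variants. Each variant's relative activity is its cleaved/total read fraction divided by the unmutated ribozyme's fraction, averaged across three batches. A variant needed a minimum of 5 reads.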
As to UAACAGGGGGCCACAGCAGAAGCGUUCAGGACGCAGCCCUAGUCAGGUUCUGGUGGAUCUGCGAAUUCUGCUGUAUAUCAC [C29G U31A C40U U41A A47G A56G U80A], the self-cleavage stood at 0.16. Then UAACAGGGGGCCACAGCAGAAGCGUUCUCGUCGCAGCCCCUGUCAGAUUCUGGUGAAUCUGCGAACUCUGCUGUAAAUCUC [A28U U66C U76A], with 0.33; and UAACAGGGGGCCACAGCAGAAGCGUUCAGGUCGCUGCCCCUGUCAGAUUCUGGUGAAUCUGCGAAUUCUGCCGUAUAUCUC [C29G A35U U72C], with 0.19.

On to UAACAGGGGGCCACAGCAGAAGCGUUCUCGUCGCAGCCCCUGUCAGAUUCUGGCGAAUAUGCGAAUUCAGCUGUAUAUCUC [A28U U54C C59A U69A], for which the self-cleavage is 0.18.

Turning to UAACAGGGGGCCACAGCAGAAGCGUUCUCGUCGCAGCCCCUGCCAGAUUCUGGUGAAUCUGCGACUUCUGCUGUAUAUCUC [A28U U43C A65C], the self-cleavage came to 0.13. As to UAACAGGGGGCCACAGCAGAAGCGUUCUCGUCGCAGCCCCUGUCAGAUUCAGGUGAGUCUGCGAACUCUGCCGUAUAUCUC [A28U U51A A57G U66C U72C], the self-cleavage is 0.14. Turning to UAACAGGGGGCCACAGCAGAAGCGUUCUCGUCGCAGCCCCUGUCAGACUCCGGAGAACCUGCGAAUUCUGCUGUAUAUCUC [A28U U48C U51C U54A U58C], the self-cleavage was determined as 0.19. Then UAACAGGGGGCCACAGCAGAAGCGUUCUCGUCGCAGCCCCUGUCAGAUUCUGGUGAAUCCGCGAAUUCUGCGGUGUAUCUC [A28U U60C U72G A75G], with 0.33; and UAACAGGGGGCCACAGCAGAAGCGUUCUCGUCGCAGCCCCUGUCAGAUUCUGGCGAAUCCGCGAAUUCUGCUGUAUAUCUA [A28U U54C U60C C81A], with 0.21; and UAACAGGGGGCCACAGCAGAAGCGUUCAAGUCGCAGCCCCUGUCAGAUUCUGGUGAAUCUGCGAAUUCAGCUGUAAAUCCC [C29A U69A U76A U80C], with 0.24. Then UAACAGGGGGCCACAGCAGAAGCGUUCUCGUCGCAGCCCCUGUCAGAUUCCGGUGAAUUUGCGAAUUCUGCUGUAUAUCUC [A28U U51C C59U], with 0.31; and UAACAGGGGGCCACAGCAGAAGCGUUCAGGUCGCAGUCCCUGUCAGAUUCUGGUGAAUCUGCGGAUUCUGCUGUAUAUCUC [C29G C37U A64G], with 0.08.

Consider UAACAGGGGGCCACAGCAGAAGCGUUCUCGUCGCAGCCCCUGUCAGAUUCUGGGGAAUCUGCGAAUUCUGCCGUAUAUCUC [A28U U54G U72C], for which the self-cleavage turned out to be 0.88. Regarding UAACAGGGGGCCACAGCAGAAGCGUUCAGGUCGCAGCCCCUGUCGGAUUCUGGUGAAUCUGCGAAUUCUGCUGUAUAUCAC [C29G A45G U80A], the self-cleavage was found to be 0.61. For UAACAGGGGGCCACAGCAGAAGCGUUCUCGUCGCAGCCCCUGUCAGAUUCUGGUGAAUCCGCGAAUUCUGCUGCAUAUCUC [A28U U60C U74C], the self-cleavage was 0.86. In the case of UAACAGGGGGCCACAGCAGAAGCGUUCUCGUCGCAGCCCCUGUCAGAUUCUGGUGAAUCCGCGAAUUCAGCUGUAUAACUC [A28U U60C U69A U78A], the self-cleavage turned out to be 0.22.

UAACAGGGGGCCACAGCAGAAGCGUUCAAGUCGCAGCCCCCGUCAGAUUCUGGUGAAUCUGCGAAAUCUGCUGUAUAUCUC [C29A U41C U66A]: the self-cleavage was determined as 0.47. In the case of UAACAGGGGGCCACAGCAGAAGCGUUCAAGUCGCAGCCCCUGCCUGAUUCUGGUGAGUCUGCGAAUUCUGCUGUAUAUCUC [C29A U43C A45U A57G], the self-cleavage was determined as 0.05. Then UAACAGGGGGCCACAGCAGAAGCGUUCUCGUCGCAGCCCCUGCCAGUUUCUGGUGAAUCUGCGAAUUCUGCUGUAUAUCUC [A28U U43C A47U], with 0.38; and UAACAGGGGGCCACAGCAGAAGCGUUCAAGUCGCAGCCCCUGUCAGAUUCUGGUGAAUCUGCGAAUUCUGCAGUAUAACUC [C29A U72A U78A], with 0.27; and UAACAGGGGGCCACAGCAGAAGCGUUCAAGUCGCAGCCCCUGUCAGAUUCUGGUGUAUCUGCGAAUUCUGCCGUAUAUCUC [C29A A56U U72C], with 0.55. To UAACAGGGGGCCACAGCAGAAGCGUUCUCGUCGCAGCCCCUGUCAGAUCCUGGUGAAUCCGCGAAUUCUGCUGUAUAUCUC [A28U U49C U60C] belongs 0.41; to UAACAGGGGGCCACAGCAGAAGCGUUCAGGUCACAGCCCCUGUCAGAUUCUGGUGAUCCUGCGAAUUCUGCUGUACAUCUC [C29G G33A A57U U58C U76C], 0.09; to UAACAGGGGGCCACAGCAGAAGCGUUCAGGUCGCAGCCCCUGUCUGAUUCUGGUGAAUCUGCGAAUUCUGCCGUAUAUCUC [C29G A45U U72C], 0.14. For UAACAGGGGGCCACAGCAGAAGCGUUCUCGUCGCAGCCCCUGUCAGACUCUGGUGAGUCUGCGAAUUCUGCUGUAUAUCUC [A28U U48C A57G], the self-cleavage came out at 0.95.

UAACAGGGGGCCACAGCAGAAGCGUUCUCGUCGCAGCCCCUGUCAGACUCGGGUGAAUCUGCGAAUUCCGCUGUAUAUCUC [A28U U48C U51G U69C]: the self-cleavage turned out to be 0.15. As for UAACAGGGGGCCACAGCAGAAGCGUUCAGGUCGCAGCCCCUGUCAGAUUCUGGUGAAUCUGCGGAUCCUGCUGUAUAUCUC [C29G A64G U67C], the self-cleavage was determined as 0.05. To UAACAGGGGGCCACAGCAGAAGCGUUCUCGUCGCAGCCCCUGUCAGAUUCAGGUGAAUCCGCGAAUUCUGCUGUAUAUCUC [A28U U51A U60C] belongs 0.32; to UAACAGGGGGCCACAGCAGAAGCGUUCUCGUCGCAGCCCCUGUCAGAUUCUGGUGAAUCUGCGAAUUCAGCUGUGUAUCUC [A28U U69A A75G], 0.14; to UAACAGGGGGCCACAGCAGAAGCGUUCAAGUCGCAGCCCCUGUCCGAUAGUGGUGAAUCUGCGAAUUCUGCUGUAUAUCUC [C29A A45C U49A C50G], 0.12. With UAACAGGGGGCCACAGCAGAAGCGUUCUCGUCGCAGCCCCUGUCAGACUCUGGUGAAUCCGCGAAUCCUGCUGUUUAUCUC [A28U U48C U60C U67C A75U], the self-cleavage was determined as 0.2.

Take UAACAGGGGGCCACAGCAGAAGCGUUCAAGUCGCUGCCCCUGUCAGAUUCUGGUGAGUCUCCGAAUACUGCUGUAUAUCUC [C29A A35U A57G G61C U67A]: the self-cleavage amounted to 0.04. UAACAGGGGGCCACAGCAGAAGCGUUCUCGUCGCAGCCCCUGUCAGAUUCCGGUGAAUCUGCGAAUUCUGCUGUAUACCUC [A28U U51C U78C]: the self-cleavage came out at 0.87. Regarding UAACAGGGGGCCACAGCAGAAGCGUUCUCGUCGCAGCCCCUGUCAGACUCUGGUGAAUCUGCGUAUUCUGCUGUAUAUCUC [A28U U48C A64U], the self-cleavage was 0.19.
